Measured values as given in article PMC12136788.
Some of the results follow.

T1: UNK ZnF1-3 (human, UniProt Q9C0B0 31-174)
T1 sequence: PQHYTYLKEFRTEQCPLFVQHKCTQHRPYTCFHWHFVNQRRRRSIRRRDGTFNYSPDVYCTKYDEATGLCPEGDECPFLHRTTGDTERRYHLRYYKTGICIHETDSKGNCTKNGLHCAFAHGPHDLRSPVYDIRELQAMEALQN

B1: chr1:109605286:109605287:-_ENSG00000197780_ENST00000461096|hu_mus|hu_hu_hu_mus_True|18_68 (ssRNA)
RNA: GGGAGUUCUACAGUCCGACGAUCAAGUUUCAGAGUAACAUUCAGUAACCUCUUUAAAUGCAAUUAUCCUUACUUUAAGCUAAGCAGAAUAAUAAUUUAAUACCGUAAGUGAACUACCACAAAACCUUGAACCGCGAAAAUGGUCAACAGAGGAUUGAGCAUCA
B2: 47058699_47059202_7561_CDS_ENSG00000181555_ENST00000409792|human|control|control (ssRNA)
RNA: GGGAGUUCUACAGUCCGACGAUCAUUCUUACAGUACUUCAGCUCCUUAUUCAUAACACCGUGAGUCAGCUUGCGAGCCAGAUGUUUAAAGUCUUCAGUUGUGGUAAUUCUUCCCACUUUGCAGUCAGGUUUCCGGUAAGGGUUCAACAGAGGAUUGAGCAUCA
B3: chr5:37680062:37680063:+_ENSMUSG00000029121_ENSMUST00000031004|mus_mus|FALSE|FALSE (ssRNA)
RNA: GGGAGUUCUACAGUCCGACGAUCUUUGGGUGUAGCUGGCACCUCGUACACAGGCCCAUCGUACAUGCCCCUGGAAACACUAUGCAACCCGAAAACCUUGCUUCUGAUCCUGACACGCUGGUAGAGAUGCUCUGGGAAUGGCUUCAACAGAGGAUUGAGCAUCA
B4: chr4:17845017:17845018:+_ENSG00000109805_ENST00000514176|hu_mus|hu_hu_hu_mus_False|58_68 (ssRNA)
RNA: GGGAGUUCUACAGUCCGACGAUCGCUCUCUUAACUUGUAUCUUCAUUAAGGAACUCUGCAAGGUUAGUUUACUUUUUUCUAGUGCUAGCUGUUUUGGCUCGUCUGGGUAAUCUCAUCUUCAUUUCUGAUGGUGGUUCAUGAUCCAACAGAGGAUUGAGCAUCA
B5: chr7:65705844:65705845:+_ENSG00000169902_ENST00000304842|hu_mus|FALSE|FALSE (ssRNA)
RNA: GGGAGUUCUACAGUCCGACGAUCAAACGGAUCUUUGUUACAUAAAUAAGGUGCCGGCUCCCCAUGUUUAACAAUGACCUCCAGAAGGAAGGCUUGCAUGGCAGAAUCUAGCACUUCAUCUGUGACACCCGCCUCAUCCAAGCGCAACAGAGGAUUGAGCAUCA
B6: 87861237_87861357_78_5pUTR_ENSMUSG00000018379_ENSMUST00000079866|mouse|control|control (ssRNA)
RNA: GGGAGUUCUACAGUCCGACGAUCACACCACCUCCCGACAUGGCGGCGGCGGCGACGACGAAAAGCGCGGACUCGGGGGGGGGGAAGGAAAAAAAAAAAAAGAGGCCUUCCUACCAAGCCUAGCGUACGGCAGAGCGAGCCCUCCAACAGAGGAUUGAGCAUCA
B7: chr3:9412954:9412955:+_ENSG00000134077_ENST00000452837|hu_mus|FALSE|FALSE (ssRNA)
RNA: GGGAGUUCUACAGUCCGACGAUCGGUUGAUAUCUCUUCUUUGAUGGCUGGAUUUUCAUAAUAGUCCAAGAUAUGUGAAUCUGAAGUGCUGCUGGCAUGCUUUUUCUUACCAUCUUUCUCAUCUGCUUUGUCUCCUUGUCCACACAACAGAGGAUUGAGCAUCA
B8: chr15:5129413:5129414:+_ENSMUSG00000050697_ENSMUST00000051186|mus_mus|FALSE|FALSE (ssRNA)
RNA: GGGAGUUCUACAGUCCGACGAUCAAAAUAGCAUGUUAAGAGGAAUAUGGAAAUAGUUCACAAUGUAACCAAAAAUGGAAACUAGUAGCUAUUUUGGAAGUUAAGGAGCCCAGAAAACAGCAUUAUCUAAUAAGGUCUAUGAGGCAACAGAGGAUUGAGCAUCA
B9: chr11:77340908:77340909:-_ENSG00000074201_ENST00000525064|hu_hu|motif|central (ssRNA)
RNA: GGGAGUUCUACAGUCCGACGAUCACUUCGGUCCCUGGAUAAUGCAUGUAAACUAAUGGUGGGGUAUUCCAGUGAGAAUCCGGAUCCAGAGCCAUCUAACCAAGACAGGCGGCUCUCAGCGAUGUAAAGGGUACCAGUGCCGAGCAACAGAGGAUUGAGCAUCA
B10: chr2:5814250:5814251:-_ENSMUSG00000025816_ENSMUST00000102981|mus_hu|mus_mus_mus_hu_True|28_108 (ssRNA)
RNA: GGGAGUUCUACAGUCCGACGAUCUUCCUUUCAGGCUUCUGAAUUUCUGGUAGAACUGCACAGAAUGGUUUGAUAACUUCUAAAAAUUUGAUGCCCAUGGCUGCUGCUCAGCACACCCAGGGGGAAACCGCGGCCUCGGCGCUGCAACAGAGGAUUGAGCAUCA
B11: chr14:76904430:76904431:+_ENSMUSG00000022010_ENSMUST00000022587|mus_mus|mus_mus_mus_hu_True|48_58 (ssRNA)
RNA: GGGAGUUCUACAGUCCGACGAUCUGCAGCCAAAAACACCCUCGUGGAAAAAAAGAGGGAACACCAGCAGCCUUGUACAAACUAGAUAAAACCGCCUGGCUUUCCGCAGCCCAGGGAGAAACAGAAAACGGCAGCCCUAAUUUACAACAGAGGAUUGAGCAUCA
B12: chrX:69798090:69798091:-_ENSMUSG00000031343_ENSMUST00000055966|mus_mus|mus_mus_mus_hu_False|78_108 (ssRNA)
RNA: GGGAGUUCUACAGUCCGACGAUCAAGUCCCCAGGUUCUUGUCGUCUUGAUUCCCCUUGGCUAGUGGUUCCAGGGAGAAUAUUAAUCAGGAAAAGAAUCCCAAGGCUGGUCAUGUAACAGUGACUUGUUUGUGUGAUUAUCAUCCAACAGAGGAUUGAGCAUCA
B13: 9574609_9576051_2272_CDS_ENSMUSG00000048264_ENSMUST00000174552|mouse|control|control (ssRNA)
RNA: GGGAGUUCUACAGUCCGACGAUCCCAGGGAUUUGCUCCAUCAGCCACUAUUAACAUGCGCAGCGAGGACAGGUUGACAUCUCUCUGAUCUCUGUGUGCUACAAGUGCCCAGUGCAUGUCUCUUGAUUUCACACAAGCCACUUUCAACAGAGGAUUGAGCAUCA
B14: chr7:97619395:97619396:-_ENSMUSG00000030614_ENSMUST00000032843|mus_mus|FALSE|FALSE (ssRNA)
RNA: GGGAGUUCUACAGUCCGACGAUCCAGGGAUGCAUAGGUCUUCAAAGCUUCAUAUUUAACCUUGAAACUGUUUCGGAAAACUAAGUUUGCCAUUAUGCCAGACAAACUACUACUUGUUCCAAAGACCAAAGUUCCAUGUAUAUUCAACAGAGGAUUGAGCAUCA
B15: chr2:65539780:65539781:-_ENSG00000198369_ENST00000356388|hu_mus|motif|central (ssRNA)
RNA: GGGAGUUCUACAGUCCGACGAUCGUUUGUAAAAUAAUUGAGUAAAAUUUAUCUCACUGAUGUGUUAUUCUAAGUAUUGCGGGGAUUUUAGAAGUGGCAAUGCAAUUCUAAAAAGUCCUAUUUUUCGGGUCAACUGGGCAAGCUCAACAGAGGAUUGAGCAUCA
B16: chr14:78183846:78183847:+_ENSG00000119705_ENST00000557342|hu_hu|hu_hu_hu_mus_False|18_18 (ssRNA)
RNA: GGGAGUUCUACAGUCCGACGAUCUCUCAGAAAUCUUUCUUCAUCAGAUGUUUGAGCUCCGUGCAAAGCCUUUGCUCUUUGAGCUUGAACGUGGAUCUAUGGGAGGGAAAGCACUGUAUUUUCCUGUAAUUUUUUUUUUAAAGACAACAGAGGAUUGAGCAUCA
B17: chr2:47387792:47387793:-_ENSG00000143933_ENST00000272298|hu_mus|motif|central (ssRNA)
RNA: GGGAGUUCUACAGUCCGACGAUCUAAGGACAAUGACAGUAAGAUAAGGGAAGAAAACAUGGAGGAAUGAAGUCCGGAUUACGGUACAUGCAUAUUUUUUGACAGUAGGGGGGGGGAACCUUUUACAGAUAAGUUACAAACAAACAACAGAGGAUUGAGCAUCA
B18: chr12:42180722:42180723:-_ENSMUSG00000036295_ENSMUST00000043884|mus_hu|mus_mus_mus_hu_True|88_88 (ssRNA)
RNA: GGGAGUUCUACAGUCCGACGAUCCUGUAGGAGAAGAAUCUGUGUGUCGGCAGGCAAUCUGGCUGGGAAAGUUAAAAGACCUAAAUCAUUACAAUCCACUGUAGAUGCUUCCAUAUAAAUGGAUCUGGGUGUAAACCAAGGCCUCAACAGAGGAUUGAGCAUCA
B19: chr11:98549071:98549072:+_ENSMUSG00000017221_ENSMUST00000017365|mus_mus|motif|central (ssRNA)
RNA: GGGAGUUCUACAGUCCGACGAUCAUCCAGCUUGUCCAGGAACUCAUAGACCCGGGCGUGAUAAUAGUAACACUUGGCAGCGGCGAGGUCCAGGGCUCGGCGGUUCUGAGUGCUGAUCUUCUGCAUCAGGUCAUCAGAGAUUUUCAACAGAGGAUUGAGCAUCA
B20: chr3:10015032:10015033:+_ENSMUSG00000027533_ENSMUST00000029046|mus_mus|mus_mus_mus_hu_True|1_68 (ssRNA)
RNA: GGGAGUUCUACAGUCCGACGAUCGUUUUUACCAUCACAAGUGAUGAUACAAUCUGGCUUGGCCAUUGCAGCCAUCUUUCGCAAAGCUAUUCCCACUCCUAGCUCCUUCAUGUAUUCAUCAAAGCCUUUGCUGUCCAUCAGGCGCAACAGAGGAUUGAGCAUCA
B21: chr4:116226318:116226319:-_ENSMUSG00000055900_ENSMUST00000106478|mus_hu|FALSE|FALSE (ssRNA)
RNA: GGGAGUUCUACAGUCCGACGAUCAGGCCUUGGACAUGGGGAAAAGUUUUGCUGGAGAGACAUCUUGAGAGAAAGUAUAUCUGUUCUGCUGGUUCUUAGUCCCACUGGGAAAGAGUACUUCAGUAUCUUUGAAGAUGCUUGAGACAACAGAGGAUUGAGCAUCA
B22: 38467728_38467848_921_CDS_ENSMUSG00000060450_ENSMUST00000072376|mouse|control|control (ssRNA)
RNA: GGGAGUUCUACAGUCCGACGAUCCUUCGUCUGCCGAGCUUGAUUGAAGUCCAAGAUCUCCUGGAUCAGACUUGACAAUGACUCUACAUCCUGUACAGCUCUCUCAUCCACAGUUUCUUCUUGGUCUACAUCCGCCGCAGCAGCCAACAGAGGAUUGAGCAUCA

Molecular target: T1, UNK ZnF1-3
Test: nsRBNS (natural sequence RNA bind-n-seq); RBNS binding buffer (assumed for nsRBNS): 25 mM Tris pH 7.5, 150 mM KCl, 3 mM MgCl2, 0.01% Triton X-100, 500 ug/ml BSA, 20 U/ml SUPERase-In, 4 C; UNK is unkempt and MSI1 is Musashi-1; names of the RNAs are library labels; protein concentration not given here; high values mean tight binding

Q: Which binding signal does the source give for B1 here?
A: 0.721 enrichment R

Q: How did the binding signal turn out when B2 was run?
A: 0.759 enrichment R

Q: Which binding signal does the source give for B3 here?
A: 0.957 enrichment R

Q: Which binding signal does the source give for B4 here?
A: 0.336 enrichment R

Q: With B5 as the binder, how does the binding signal read?
A: 0.346 enrichment R

Q: Which binding signal does the source give for B6 here?
A: 1.87 enrichment R

Q: How did the binding signal turn out when B7 was run?
A: 0.377 enrichment R

Q: How did the binding signal turn out when B8 was run?
A: 1.67 enrichment R

Q: For B9, which binding signal is on record?
A: 1.53 enrichment R

Q: Which binding signal does the source give for B10 here?
A: 1.04 enrichment R

Q: With B11 as the binder, how does the binding signal read?
A: 2.37 enrichment R

Q: For B12, which binding signal is on record?
A: 0.716 enrichment R

Q: For B13, which binding signal is on record?
A: 1.05 enrichment R

Q: How did the binding signal turn out when B14 was run?
A: 0.55 enrichment R

Q: Which binding signal does the source give for B15 here?
A: 0.77 enrichment R

Q: B16 was tested. Which binding signal did it give?
A: 0.869 enrichment R

Q: With B17 as the binder, how does the binding signal read?
A: 1.89 enrichment R

Q: Which binding signal does the source give for B18 here?
A: 1.26 enrichment R

Q: How did the binding signal turn out when B19 was run?
A: 0.842 enrichment R

Q: For B20, which binding signal is on record?
A: 0.81 enrichment R

Q: B21 was tested. Which binding signal did it give?
A: 1.47 enrichment R

Q: How did the binding signal turn out when B22 was run?
A: 0.923 enrichment R
